According to publication PMC4336329 (PLoS ONE, 2015):
Hit rate of the full screen: of about 310,000 compounds, about 2,200 (0.71%) showed an effect of 50% or more. Effects have a minus sign here. Some of the results follow.

These compounds were tested against human ether-à-go-go-related gene (hERG) potassium channel (human, UniProt Q12809) (assay: primary screen, population patch clamp on CHO cells stably expressing hERG).
Sequence of human ether-à-go-go-related gene (hERG) potassium channel (Q12809 whole entry, looked up): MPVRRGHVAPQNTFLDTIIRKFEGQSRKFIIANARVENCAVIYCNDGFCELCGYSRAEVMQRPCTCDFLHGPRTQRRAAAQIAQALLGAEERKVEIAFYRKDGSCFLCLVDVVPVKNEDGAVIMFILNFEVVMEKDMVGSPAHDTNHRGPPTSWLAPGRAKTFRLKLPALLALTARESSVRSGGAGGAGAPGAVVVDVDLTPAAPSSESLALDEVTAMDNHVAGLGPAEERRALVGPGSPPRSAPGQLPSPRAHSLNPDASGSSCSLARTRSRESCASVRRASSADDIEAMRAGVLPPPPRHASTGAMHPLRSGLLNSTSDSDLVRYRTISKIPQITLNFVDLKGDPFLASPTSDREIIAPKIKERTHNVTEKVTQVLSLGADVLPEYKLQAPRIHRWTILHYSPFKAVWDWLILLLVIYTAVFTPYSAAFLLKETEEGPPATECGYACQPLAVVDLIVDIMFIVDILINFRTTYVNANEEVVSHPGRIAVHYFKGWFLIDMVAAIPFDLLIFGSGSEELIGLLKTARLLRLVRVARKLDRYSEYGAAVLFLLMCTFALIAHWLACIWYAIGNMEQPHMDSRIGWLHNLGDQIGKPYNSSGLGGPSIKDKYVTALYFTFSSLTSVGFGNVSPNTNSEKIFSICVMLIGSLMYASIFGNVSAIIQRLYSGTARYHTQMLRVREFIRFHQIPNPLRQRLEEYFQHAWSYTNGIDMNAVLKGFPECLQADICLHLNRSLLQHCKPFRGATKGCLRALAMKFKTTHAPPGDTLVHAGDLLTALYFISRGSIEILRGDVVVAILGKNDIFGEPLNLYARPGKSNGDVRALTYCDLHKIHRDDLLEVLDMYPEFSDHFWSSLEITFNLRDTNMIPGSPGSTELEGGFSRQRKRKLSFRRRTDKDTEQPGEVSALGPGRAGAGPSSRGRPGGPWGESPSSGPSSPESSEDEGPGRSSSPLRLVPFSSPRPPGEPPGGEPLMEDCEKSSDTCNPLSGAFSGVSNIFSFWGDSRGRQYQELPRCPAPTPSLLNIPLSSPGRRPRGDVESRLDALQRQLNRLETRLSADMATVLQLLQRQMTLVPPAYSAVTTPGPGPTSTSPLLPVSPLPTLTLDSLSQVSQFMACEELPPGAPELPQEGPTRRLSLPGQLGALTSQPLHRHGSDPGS
In the case of `COc1ccccc1NC(=S)N1CCN(C(=O)c2ccco2)CC1`, the “hERG current change (%, negative = inhibition) at 1uM” value was 15.6%. `CC(C)(CNC(=O)C1CCCC1)CNC(=O)C1CCCC1` was tested, and the “hERG current change (%, negative = inhibition) at 1uM” value was 13%. `Cc1ccccc1C(=O)NC(CC(C)C)C(=O)OCC(=O)c1c(N)n(C)c(=O)n(C)c1=O` (stereo not drawn) was tested, and the “hERG current change (%, negative = inhibition) at 1uM” value was 11.7%. For `COc1ccccc1NC(=O)c1cc2ccc(O)cc2o/c1=N\O`, the “hERG current change (%, negative = inhibition) at 1uM” value was 2.95%. `Cn1nc(C(C)(C)C)cc1C(=O)Sc1cccc(Br)c1` was tested, and the “hERG current change (%, negative = inhibition) at 1uM” value was 2.73%. For `COc1cccc(CNC(=O)C2CCN(S(=O)(=O)c3ccc4c(c3)CCC(=O)N4)CC2)c1`, the “hERG current change (%, negative = inhibition) at 1uM” value was 17.5%. For `CS(=O)(=O)N1CCN(C2C3CC4CC(C3)CC2C4)CC1.O=C(O)C(=O)O` (stereo not drawn), the “hERG current change (%, negative = inhibition) at 1uM” value was 16.5%. With `C=C(C)CSc1nc(N)cc(=O)[nH]1` the “hERG current change (%, negative = inhibition) at 1uM” value was 2.51%. For `COc1ccc(N2CCN(C(=N)/C(C(C)=O)=C(\C)O)CC2)cc1`, the “hERG current change (%, negative = inhibition) at 1uM” value was 19.3%. `Cc1ccc(NC(=O)CNC(=O)c2ccccc2F)cc1Cl` was tested, and the “hERG current change (%, negative = inhibition) at 1uM” value was 2.42%. `Cc1cccc(C(=O)NNC(=O)c2c(-c3ccccc3Cl)noc2C)c1O` was tested, and the “hERG current change (%, negative = inhibition) at 1uM” value was 10.6%. For `O=C1N(c2ccccc2)C[C@@H]2C[C@@H](c3cccc4c3OCO4)N3CCC[C@@]123`, the “hERG current change (%, negative = inhibition) at 1uM” value was 23.3%. For `Cc1cc(Cl)ccc1NC(=O)CCCN1C(=O)CCC1=O`, the “hERG current change (%, negative = inhibition) at 1uM” value was 11.3%. For `CCCCn1c(N)c(N(C)C(=O)C2CCCC2)c(=O)[nH]c1=O`, the “hERG current change (%, negative = inhibition) at 1uM” value was 9.28%. For `COc1ccc(CSc2nncn2C)cc1F`, the “hERG current change (%, negative = inhibition) at 1uM” value was 3.27%. In the case of `NC(=O)CC(NC(=O)Cc1cccc2ccccc12)c1ccc(N2CCC(Cc3ccccc3)CC2)c([N+](=O)[O-])c1` (stereo not drawn), the “hERG current change (%, negative = inhibition) at 1uM” value was 12.6%. For `Cc1cc(C(=O)OCC(=O)Nc2nc(-c3ccccc3)cs2)c(C)o1`, the “hERG current change (%, negative = inhibition) at 1uM” value was 13.9%. For `O=C(O)/C=C/c1cn(-c2ccccc2)nc1-c1cccs1`, the “hERG current change (%, negative = inhibition) at 1uM” value was 15.4%. For `Cc1cc(-n2nnc3ccccc32)nc2ccccc12`, the “hERG current change (%, negative = inhibition) at 1uM” value was 11.2%. For `C[C@]12C(=O)N(c3ccccc3)C(=O)N1[C@@H]1c3ccccc3OC[C@@H]1[C@H]2c1ccccc1`, the “hERG current change (%, negative = inhibition) at 1uM” value was 11.3%. In the case of `CN(C)S(=O)(=O)c1ccc(N=Cc2c(C(F)(F)F)[nH][nH]c2=O)cc1`, the “hERG current change (%, negative = inhibition) at 1uM” value was 18.6%. With `O=C(c1ccco1)N1CCCN(C(=O)c2ccco2)CC1` the “hERG current change (%, negative = inhibition) at 1uM” value was 8.78%. `CCc1nc(Nc2cc(OC)ccc2OC)c2oc3ccccc3c2n1.Cl` was tested, and the “hERG current change (%, negative = inhibition) at 1uM” value was 7.8%. In the case of `CSc1ccc(CNC(=O)C2CCC(=O)N(Cc3cccc(F)c3)C2)cc1` (stereo not drawn), the “hERG current change (%, negative = inhibition) at 1uM” value was -23.4%.
